Laboratory results taken from PubChem BioAssay AID902 (National Center for Advancing Translational Sciences (NCATS), 2007).
Values joined by “and” are separate entries in the source; they are usually repeats but may differ in a detail not shown here. Equal entries are not always repeated. Screen size: about 130,000 compounds; about 1,900 (1.5%) were called active. The inconclusive results got no clear call from the source; some entries with a clear call stand among them for comparison. The call rests on the fitted dose curve; in most records, active means well fitted cell-killing curve with a large enough effect; inconclusive means small, poorly fitted or top-dose-only effect; inactive means no such curve, though single readings can be large or run the other way. Where the call is inconclusive, the potency comes from a doubtful curve fit.

Experiment: qHTS Screen for Compounds that Selectively Target Cancer Cells with p53 Mutations: Cytotoxicity of p53ts Cells at the Nonpermissive Temperature; further: nearly all actives have a fitted effect of over 55% in size
Settings: H1299-p53A138V viability at 39C, ATP luminescence, 24 h; activity change, negative = cell killing: at 46.1 µM (top of the series)
On the % scale 0 is the no-effect control and ±100 the full control effect; potency means the concentration at half of the fitted maximal effect; tags describe the fitted curve by direction and shape.

SMILES | Potency | activity change, negative = cell killing
CCOC(=O)c1c(C)oc2ncnc(Nc3cccc(C(F)(F)F)c3)c12 | inactive | –
O=C(c1csnn1)N1CCC2(CC1)CN(c1ccccn1)C2 | inactive | –
Cc1ccc(C(=O)CSc2nc(C)cc(C)c2C(=O)Nc2cccc(C)c2)cc1 | inconclusive: 1.78 µM [cytotoxic, partial curve, poor fit] | –
CCc1cc2c(nc1CC)CCN(CC/C(C)=N/O[C@@H](C)c1cn([C@H](CO)Cc3ccccc3)nn1)C2 | – | inactive: -0.22% [at 9.22 µM] and inactive: 8.74% [at 9.22 µM]
COc1ccc(NC(=O)c2cc(-c3ccc(O)cc3)on2)cc1OC | inactive | –
COc1ccc(/C=C/c2nc(C#N)c(N3CCCCC3)o2)cc1OC | inactive | –
Cc1ccccc1S(=O)(=O)Cc1ccc(C(=O)N2CCN(c3cccc(C)c3C)CC2)o1 | active: 12.6 µM | –
CCc1ccc(NC(=O)Cn2ncn3c(cc4ccccc43)c2=O)cc1 | inconclusive: 0.005 µM [cytotoxic, full curve, poor fit] | –
Cc1ccc2c(=O)cc(C(=O)Nc3c(C)cccc3C)oc2c1 | inconclusive: 0.005 µM [cytotoxic, full curve, poor fit] | –
CC(=O)N1CCCc2ccc(NC(=O)c3ccc(OC(C)C)cc3)cc21 | inconclusive: 15.8 µM [cytotoxic, single point] | –
Nc1ccc(N=Nc2ccccc2)c(N)c1 | inconclusive: 12.6 µM [cytotoxic, partial curve] | –
CCc1ccc(C(=O)CC2(O)C(=O)N(CCc3ccccc3)c3ccc(Cl)cc32)cc1 (centres undefined) | inconclusive: 25.1 µM [cytotoxic, single point] | –
Cc1cc(C)c(Cn2c(=O)n(CCCC(=O)NCc3ccc4c(c3)OCO4)c(=O)c3sccc32)c(C)c1 | inconclusive: 31.6 µM [cytotoxic, single point] | –
CC(C)c1ccc(Nc2c(-c3ccccn3)nc3ccccn23)cc1 | active: 15.8 µM | –
O=c1[nH]c2ccc(Br)cc2c(-c2ccccc2)c1N1CCOCC1 | inactive | –
FC(F)(F)c1cccc(Nc2c3c(nc4ccc(Cl)cc24)CCC3)c1 | active: 12.6 µM | –
CCCCCN1C(C(=O)c2ccccc2)=C(OC(=O)CC)c2ccccc2S1(=O)=O | inactive | –
COc1ccc(Nc2oc(COc3ccc(Cl)cc3)nc2C#N)cc1 | inconclusive: 31.6 µM [cytotoxic, single point] | –
Cc1ccc(CCNC(=O)c2ccc(Nc3nc4ccccc4n4nnnc34)cc2)cc1 | inconclusive: 3.98 µM [cytotoxic, single point] | –
Cc1ccccc1OCC(=O)Nc1ccccc1OCc1cc(=O)n2ccccc2n1 | inconclusive: 3.98 µM [cytotoxic, partial curve, poor fit] | –
CC(C)(C)C1CCc2[nH]c3ccccc3c(=O)c2C1 (centres undefined) | inconclusive: 10 µM [cytotoxic, partial curve] | –
Fc1cccc(CSc2ccc(-c3cccs3)nn2)c1 | inconclusive: 12.6 µM [cytotoxic, single point] | –

SMILES | Potency | activity change, negative = cell killing
Cc1ccc2nc(-c3ccccn3)c(Nc3ccccc3C)n2c1 | inconclusive: 6.31 µM [cytotoxic, single point] | –
CC(C)c1ccc2oc(-c3cc(N)ccc3O)nc2c1 | active: 15.8 µM | –
O=S(=O)(/N=C(/Nc1cc(N2CCOCC2)ncn1)c1ccccc1)c1ccccc1 | inconclusive: 6.31 µM [cytotoxic, partial curve] | –
Oc1c(CN2CCOCC2)cc(COCc2ccccc2)c2cccnc12 | inconclusive: 3.16 µM [cytotoxic, full curve] | –
Cc1nn2cc(-c3ccc(OC(C)C)cc3)nc2s1 | active: 10 µM | –
Cc1ccc(CCNC(=O)C2CCN(S(=O)(=O)c3ccc4c(ccn4C)c3)CC2)cc1 | inconclusive: 0.126 µM [cytotoxic, full curve, poor fit] | –
O=C(/C=C/Nc1cccc(O)c1)c1ccccc1 | active: 7.94 µM | –
Cc1cccc2nc(CSCc3ccco3)cn12 | inactive | –
COc1ccc(C)cc1NC(=O)Nc1cccc(-c2noc(C)n2)c1 | inconclusive: 12.6 µM [cytotoxic, single point] | –
COc1ccc(N=Cc2c(O)c3ccccc3oc2=O)cc1 | inconclusive: 22.4 µM [cytotoxic, single point] | –
COc1ccc(CCNC(=O)c2c(C)oc3ncn(C)c(=O)c23)c(OC)c1 | inactive | –
Cc1ccc2[nH]c(=O)c3cc(C(=O)NCCCN4CCC(C)CC4)sc3c2c1 | inconclusive: 31.6 µM [cytotoxic, single point] | –
O=C1C(c2ccc(F)cc2)N(CCc2ccccc2)C(=O)CN1C1CCCCCC1 (centres undefined) | inconclusive: 2 µM [cytotoxic, partial curve] | –
O=C1C[C@@H](O)[C@@H](O)[C@H]2[C@@H]3C(=O)N(c4cccc(Oc5ccccc5)c4)C(=O)[C@@H]3CC[C@H]12 | – | inactive: 10.7% [at 9.22 µM] and inactive: 9.39% [at 9.22 µM]
O=C(O)[C@@H](O)[C@@H](O)[C@@H](O)[C@@H](O)c1nc2ccccc2s1 | – | inactive: 5.31% [at 9.22 µM]
CCCCN1C(=O)C(O)(CC(=O)c2ccc(C)cc2C)c2cc(Br)ccc21 (centres undefined) | inconclusive: 20 µM [cytotoxic, single point] | –
Cc1sc(-c2cc3c([nH]c2=O)CC(c2ccccc2)CC3=O)nc1-c1ccc(Cl)cc1 (centres undefined) | inactive | –
CCCCS(=O)(=O)c1oc(-c2ccc(F)cc2)nc1S(=O)(=O)c1ccc(C)cc1 | active: 3.98 µM | –
O=C(NCc1cccc(F)c1)c1ccc(NC(=O)c2nsc3ccccc23)cc1 | active: 10 µM | –
c1cc(NC2CC2)nc(-c2ccoc2)n1 | inconclusive: 7.94 µM [cytotoxic, partial curve] | –
O=C(NC(=S)N1CCN(c2ccc(C(F)(F)F)cc2[N+](=O)[O-])CC1)c1cccs1 | inconclusive: 3.16 µM [cytotoxic, single point] | –
CCc1ccc(S(=O)(=O)Nc2cccc(-c3ccc(N4CCOCC4)nn3)c2)cc1 | inconclusive: 15.8 µM [cytotoxic, partial curve] | –
